Among the data in publication PMC5823869 are stoichiometry N values, retold here.

“And” between values parts separate entries of the source, which are not always exact repeats. Identical values can stand only once.

The target in assay [1] is purified His-tagged YAP2L-WT (human) (UniProt P46937). The experiment in a line: non-reducing SDS-PAGE with immunoblot; 1 µg of purified His-YAP2L or GST-TAZ protein, sample buffer without DTT; blot with anti-His-HRP or anti-YAP, or Ponceau-S staining.
Assay [2] deals with YAP2L-WT (YAP2γ), FLAG- or HA-tagged (human) (UniProt P46937). The experiment in a line: non-reducing SDS-PAGE with immunoblot; cell lysates (15 µg of transfected HEK293; 30 µg of H460 for endogenous TAZ) in SDS sample buffer without DTT, 3 min at 60 °C; blot with anti-FLAG, anti-HA or anti-TAZ; series with increasing DTT run beside.

With “purified His-tagged YAP2L-WT (a stretch of the chain, sequence not shown) (natural protein; other documents disagree on this pair)”, the stoichiometry N (commonly a count of units in the complex or per binding partner) in assay [1] is 2 and 3 and 4. In the case of “YAP2L-WT (YAP2γ), FLAG- or HA-tagged (a stretch of the chain, sequence not shown) (natural protein; other documents disagree on this pair)”, the stoichiometry N in assay [2] turned out to be 2.
